The record followed here is the supplement of paper PMC11417369.

± gives the standard deviation of the averaged measurements. Some of the results follow.

This assay has as its system PfAP2-LT AP2 domain (GST-tagged). Put plainly: gcPBM binding intensity (ln(normalized median fluorescence intensity)); higher = stronger DNA binding. Summed up: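 Binding intensity is the highest Masliner-normalised natural-log median intensity over replicate spots in either probe orientation. To obtain it, GST-tagged P. falciparum DNA-binding domains made in E. coli were incubated for 1 h on an Agilent 4 × 180k array of primer-extended double-stranded 36-bp intergenic genomic probes plus negative controls. Detection used Alexa488 anti-GST antibody with scanning at 488 nm.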
On to “TTTGAAATGATATATAAACACACATATATATATATA [CACACA_site9170]”, for which the “gcPBM binding intensity (ln)” value was 9.56 ± 0.3.
With “ATATTGAATTCCAACACATGCAAAACTTTCGGTTTT [TGCATGCA_site485]”, the “gcPBM binding intensity (ln)” value is 8.69 ± 0.38.
For the sequence “AACAACTATTAATTTACACACATGTATATATCTTAC [CACACA_site7459]”, the “gcPBM binding intensity (ln)” value is 9.3 ± 0.38.
For “TATTAAAAGGTGAGTACACACATATATGCGTATATA [CACACA_site2102]”, the “gcPBM binding intensity (ln)” value worked out at 9.15 ± 0.38.
As for “TATTTTACACATTTACGTACATAAATATATATATAT [XGTACX_site8788]”, the “gcPBM binding intensity (ln)” value stood at 8.99 ± 0.41.
Take “AGACATTTTTAAGCAAAACATTCATCATCTTATAAT [CACACA_negctrl_site1539]”: the “gcPBM binding intensity (ln)” value amounted to 8.57 ± 0.43.
With “TACGCACAAAAATATACACACACACCGATATATTTA [CACACA_site9213]”, the “gcPBM binding intensity (ln)” value was 9.74 ± 0.2.
For “TCGTGTGTAATATTATATATATATATATAATATATA [TGCATGCA_negctrl_site289]”, the “gcPBM binding intensity (ln)” value is 9.1 ± 0.25.
In the case of TTTTAAGGTGTGAAGGTGCAAAAAGGTAAATAGGAA, the “gcPBM binding intensity (ln)” value was 8.97 ± 0.6.
For the sequence “TAAACAGAAGCACATACACACACTCAAAAAAAAAAA [CACACA_site3051]”, the “gcPBM binding intensity (ln)” value amounted to 9.53 ± 0.39.
Consider “AAAATACATAAACACACACACACACCGATATATATA [CACACA_site9186]”, for which the “gcPBM binding intensity (ln)” value was found to be 10.43 ± 0.092.
Consider “CACAAACACCCAAACACACACACACCGACATACATA [CACACA_site4410]”, for which the “gcPBM binding intensity (ln)” value is 10.1 ± 0.46.
Next, “AAATTGTCAAAACACGCACACACATATACATAATAA [CACACA_site1743]”: 9.62 ± 0.36; “GTGATACGCTATAGGACACACGCTTAATAATTATAA [CACACA_site1694]”: 8.77 ± 0.44.
Take “ATCATAAATTATTATACACACAATACGTGACCTATT [CACACA_site1906]”: the “gcPBM binding intensity (ln)” value was 9.13 ± 0.41.
In the case of “TCTTTTATATTGTAGAGTACATATTTTCAATATATA [XGTACX_site5586]” it was 8.47 ± 0.46; in that of “TTCTTTTATAAAAGTAGTACAATTATATTGTAATTA [XGTACX_site2855]”, 8.36 ± 0.48.
With “TTCCTCTTAATATGTGCACACTAAATTATAACATAA [CACACA_site3260]”, the “gcPBM binding intensity (ln)” value was found to be 8.93 ± 0.41.
Regarding “TATAGTTTTATTATTTATGTGTTAAAATTATACAAG [TGCATGCA_negctrl_site246]”, the “gcPBM binding intensity (ln)” value was 8.46 ± 0.47.
In the case of “CATACCATACATAAAACACACAAAATTTACATAATA [CACACA_site3100]”, the “gcPBM binding intensity (ln)” value was found to be 9.12 ± 0.43.
On to ACCCATTTTAATTTAGTGCACATTTTACCTTTATAC, for which the “gcPBM binding intensity (ln)” value was determined as 9.16 ± 0.43.
With “AAAAAAATAACAAAGTGTACTTTTATATTTTACATA [XGTACX_site8954]”, the “gcPBM binding intensity (ln)” value was 8.41 ± 0.48.
With “TTCTGCAGCAATGTTTTTTTTAAATATTTATATGGT [CACACA_negctrl_site1815]”, the “gcPBM binding intensity (ln)” value turned out to be 8.71 ± 0.42.
For “TTTTTTTCTTTTTCAAAAAAAAAAAAAAAAAAAATA [GTGCAC_negctrl_site329]”, the “gcPBM binding intensity (ln)” value was 7.66 ± 0.4.
For “GCTAGTTTTTTTTGGCGTACAGTACCGGTTTACTTT [XGTACX_site2606]”, the “gcPBM binding intensity (ln)” value amounted to 9.14 ± 0.38.
“TTTAATTCCATAAGTAAACACACAAATGCCAAAATT [CACACA_site9049]”: the “gcPBM binding intensity (ln)” value is 8.91 ± 0.4.
Consider “AATATTTATAAATTTACACACACACGGGTGAACATA [CACACA_site6979]”, for which the “gcPBM binding intensity (ln)” value was 9.4 ± 0.27.
For “ATTCTAAATTAAAATACACACATATATACATAATAT [CACACA_site2792]”, the “gcPBM binding intensity (ln)” value is 8.94 ± 0.42.
In the case of “AAAAAAAAAAAAAAATGTACATATTAAGTATAATTA [XGTACX_site4616]” it was 8.62 ± 0.54.
As for “CAATTTGGTGTACAGGTGCACATGCCTCACGATAAA [GTGCAC_site9650]”, the “gcPBM binding intensity (ln)” value was 9.04 ± 0.38.
On to “TTAGCTCAATTTTTGGGTACACACAAATGTATAATA [XGTACX_site5003]”, for which the “gcPBM binding intensity (ln)” value amounted to 8.82 ± 0.38.
For “GAAAAATGTAAATACATATATGTACACAAATATATA [GTGCAC_negctrl_site557]”, the “gcPBM binding intensity (ln)” value worked out at 8.93 ± 0.35.
Next, “TATGTATGCCTGTTTTGTACTTAAGAAAATGTTGCT [XGTACX_site8443]”: 8.88 ± 0.38.
For “AAAAAAAAAAAAAAAAGTACATAATATAAAATCTAA [XGTACX_site6019]”, the “gcPBM binding intensity (ln)” value turned out to be 8.51 ± 0.71.
“TATGTAAAAACAGGCACACATATATCATATATATAT [CACACA_site619]”: the “gcPBM binding intensity (ln)” value turned out to be 9.11 ± 0.42.
For the sequence “AAAAAAAAATATCACACACACATAAATATAAACCAA [CACACA_site2279]”, the “gcPBM binding intensity (ln)” value was found to be 9.64 ± 0.21.
Consider “AGAGCATAATAAAACACACACATACATACATATATA [CACACA_site935]”, for which the “gcPBM binding intensity (ln)” value amounted to 9.63 ± 0.25.
With “ATTGGGTTCATCAGCACACACAACATCATGTAATAA [CACACA_site5093]”, the “gcPBM binding intensity (ln)” value worked out at 9.31 ± 0.51.
On to “TAAAACATCAAGGGGTGTACAAAAAAGATGAACAGG [XGTACX_site6929]”, for which the “gcPBM binding intensity (ln)” value came to 9.01 ± 0.42.
For “AAAAAAAAAAAAACTACACACATAAAATATATTGTG [CACACA_site805]”, the “gcPBM binding intensity (ln)” value was determined as 8.94 ± 0.38.
“AGGCACTTATAATAATGTACATAAATAAAAAGAAAA [XGTACX_site6037]”: the “gcPBM binding intensity (ln)” value worked out at 8.79 ± 0.56.
In the case of “TATAAATATATATGTACACACATATACATGTTGAAT [CACACA_site3118]”, the “gcPBM binding intensity (ln)” value was 9.05 ± 0.42.
Consider “TATAAACATAAATATACACACAAACATCTATGTATT [CACACA_site4804]”, for which the “gcPBM binding intensity (ln)” value came out at 9.11 ± 0.33.
Turning to “ATTTGTAATATTAAATGTACAGGTAAGAAATATCAG [XGTACX_site1562]”, the “gcPBM binding intensity (ln)” value came to 8.77 ± 0.42.
With “TAAGGAAAAAAAATATGTACTTATAGTTCCTTCTTT [XGTACX_site2202]”, the “gcPBM binding intensity (ln)” value was determined as 8.6 ± 0.51.
As for “GGATTCAAAAAAAAAAATAAAAGTAAATAATAAATA [TGCATGCA_negctrl_site348]”, the “gcPBM binding intensity (ln)” value came to 8.44 ± 0.43.
On to “TAAATATATTTATACACACACACCAAAGCAATAGAT [CACACA_site7393]”, for which the “gcPBM binding intensity (ln)” value stood at 9.76 ± 0.34.
For the sequence “ATTACAACATTTTATACACACGTGATTATTAATTTT [CACACA_site5581]”, the “gcPBM binding intensity (ln)” value worked out at 8.97 ± 0.38.
Regarding “TTCAATATACATATGTGTACTAAAATAAATAGAAAA [XGTACX_site5708]”, the “gcPBM binding intensity (ln)” value amounted to 8.61 ± 0.44.
“AAGAACAGAACGTACACACACATATTTATATTTATA [CACACA_site7594]”: the “gcPBM binding intensity (ln)” value came out at 9.55 ± 0.3.
Turning to “TTTATGAAGTAAAAATATAAATTCACAAAGTTAAAA [CACACA_negctrl_site1476]”, the “gcPBM binding intensity (ln)” value is 8.53 ± 0.48.
For “TATATTTCAGGGGGGAGTACAAATTTTTTTATATAA [XGTACX_site1600]”, the “gcPBM binding intensity (ln)” value was 9.96 ± 0.4.
For “TTTTCAAAGATATATACACACATGCATATTACGGTG [CACACA_site6505]”, the “gcPBM binding intensity (ln)” value is 9.07 ± 0.43.
For the sequence “TTAATAAATATCAATACACACACACTAATGTGAATA [CACACA_site9254]”, the “gcPBM binding intensity (ln)” value stood at 9.24 ± 0.2.
Next, “TTTTTGAGTGCACATACACACAGACATACATTTAAA [CACACA_site5813]”: 8.97 ± 0.3; “TTATATATATATATATATATATATATATATATAAAT [GTGCAC_negctrl_site126]”: 9.15 ± 0.29.
